Laboratory results as given in the supplement of paper PMC11417369.
This is one part of the list.

These sequences were tested on PfHDP1 homeodomain (GST-tagged) (assay: gcPBM binding intensity (ln(normalized median fluorescence intensity)); higher = stronger DNA binding).
How it was run: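 Binding intensity is defined as the maximum Masliner-normalised natural-log median intensity across replicate spots for either probe orientation. It was measured on an Agilent 4 × 180k array of primer-extended double-stranded 36-bp intergenic genomic probes and negative controls, to which GST-tagged P. falciparum DNA-binding domains made in E. coli were applied for 1 h in 1× PBS with 1% milk, 0.2 mg/ml BSA, 0.5% salmon testes DNA and 0.03% Triton X-100. Detection was by Alexa488 anti-GST antibody and scanning at 488 nm.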

Row | Sequence | gcPBM binding intensity (ln)
1 | AACTGATTATTTTTTTGTACATATATAATAATATAT [XGTACX_site5953] | 6.71
2 | CATAAATAATATATTTGTACGAATAAAATTTGTTCA [XGTACX_site3445] | 6.22
3 | TAAAACAATATAAAATGTACAGAATTTTTTTTTCTT [XGTACX_site6820] | 6.07
4 | CAATGAAAAATAATGAGTACATAGTTAATAAAGATA [XGTACX_site72] | 6.6
5 | TTTAAAGTTTTATACACACACCAAAGTTATTCTAAT [CACACA_site6432] | 6.52
6 | ATAATTAAAATTAAATGTACTTTTTTATATATTTTT [XGTACX_site2209] | 6.21
7 | AATTTCTTTTTCGATATACACACTGTATGTGTCTAA [CACACA_site3975] | 6.72
8 | TATATACATATATGCACACAAAAAAATATATATTTT [CACACA_site1729] | 10.1
9 | ATATGGATTATACATACATGCATACATACATACATA [TGCATGCA_site475] | 6.58
10 | AATGATACACATATATGTACATATATATATATATAT [XGTACX_site5391] | 9.33
11 | TGCAATATATCAAAGTGTACATGCAATAAAAAAAAA [XGTACX_site652] | 7.07
12 | AAAATTTAATATAATGCACACATAAAACAAAAACAA [CACACA_site8071] | 9.14
13 | AAATGTAGAAAAAGTTGTACACTGTTTCAAAAATAA [XGTACX_site1063] | 6.47
14 | TATAATATAAAAATGAGTACATAGATAATAATATTT [XGTACX_site2376] | 6.56
15 | TTTTTTTTTTATTAATGTACAAGATATATAATGTTA [XGTACX_site4809] | 6.16
16 | ATATTTTATTATATAGGTACACATAATTTCATGTAA [XGTACX_site415] | 6.34
17 | ATCTTAATTTTTGAAGGTACACACTAATATATTAAA [XGTACX_site2292] | 6.57
18 | TATATAGTAAATATTTGTACATAATAAAATATATGT [XGTACX_site7873] | 6.25
19 | TTTTGTACATCTTTTGCACACGTAATGTTATTATAA [CACACA_site1259] | 10.6
20 | AATAAATAAAAATGCACACAGTTAACATGTTGAATT [CACACA_site4795] | 9.82
21 | AAAAAACAATTTGTGTGTACACATGATACGTTCGAT [XGTACX_site4112] | 7.16
22 | AAGAAGTGGAAAATATACTCCACATATATATATGTG [CACACA_negctrl_site304] | 7.72
23 | ATATATATTTTTAATTGTACAGAATTAAAAATATTG [XGTACX_site1967] | 6.27

Row | Sequence | gcPBM binding intensity (ln)
24 | AAAAAAAAAAAAAGCTGTACAATTAAAGACAAACCT [XGTACX_site8610] | 6.52
25 | CTTTAACCATATATGTGTACGTATTTTATTCATATT [XGTACX_site6212] | 7.21
26 | TTATAATATATATAAAAGAAAAAAAATTATAATATA [CACACA_negctrl_site90] | 6.53
27 | TTATTTTTCTTTATTGGTACACACGAAAAAAAAATT [XGTACX_site6482] | 6.43
28 | TTTTTTACAGAAAAATATTAAAATTATAAATGTGAA [GTGCAC_negctrl_site451] | 6.38
29 | GCCCACACGAACCATGCATGCCACGATATAAACCAC [TGCATGCA_site322] | 7.15
30 | TAATATATATATATGGTGCATTTAATTTATATATAA | 10.2
31 | TATGAAATTTTAATTACACACAGGAAAATAAAATGT [CACACA_site8430] | 6.46
32 | TATTAATATATAGTAGTGCAATAAAGATATACTGAA | 9.67
33 | AACATACTCACGAACATACACACGGACATACATACG [CACACA_site603] | 6.98
34 | AATAAATAAATATATTGTACATATATATATATATAT [XGTACX_site8627] | 9.32
35 | CGAAAGGAAATATAACGTACATAAGATTATATTCAC [XGTACX_site3868] | 6.47
36 | ATGCATACACTTATATGTACACATTTACATATTATT [XGTACX_site2841] | 6.93
37 | TATTAAAAGAAAAAAAAAAAAAAATTAATACATATA [XGTACX_negctrl_site582] | 5.8
38 | ATGAACAAGGGGCACACACACATTATGACTAATTTA [CACACA_site3204] | 6.74
39 | ATATGCTATTAATTATGTACATATATATATATATAT [XGTACX_site4901] | 9.29
40 | GTACATTATATATATACACACATACATAATAAAGAA [CACACA_site5528] | 6.94
41 | ACTACGTGTCAAAAATATTAATTACAAATGAATAAA [GTGCAC_negctrl_site248] | 6.08
42 | GGACTATACAGTTATACACACACATATATATATAAT [CACACA_site7991] | 6.99
43 | TTTAGTGAGTTTGTTGTGCACTGAAAAAATTACAAT | 10.4
44 | TAATATTTTAATTGTGTGCACATTAATATTATAAAA | 10.3
45 | TATATTATTTTTTGTGGTACATGTATTTTTACCTAA [XGTACX_site4348] | 6.6
46 | TACATATTTACTATCACACACACGATATATATAAAT [CACACA_site1242] | 6.8

Row | Sequence | gcPBM binding intensity (ln)
47 | TACTTAAAAAAAAAAAAAATAAATATTATGTATTAT [CACACA_negctrl_site138] | 6.04
48 | ATACGAAAAAATAGACGTACTATGAAATAATAATTT [XGTACX_site8387] | 6.66
49 | AAAACAAACGGACACACACACATATATATATATATA [CACACA_site5924] | 9.42
50 | ACATGTAAATTTACATGTACATGTAACACTTAATAT [XGTACX_site4575] | 6.68
51 | TATATTAAACAATATACACACATTAATGTATCCATA [CACACA_site5523] | 6.75
52 | TTATATATATATATATGTACACATATATAACATGAT [XGTACX_site6643] | 7.16
53 | TGTAATATTTTTCATGCATGCTCTTCTTTTACATAA [TGCATGCA_site144] | 7.2
54 | ATAATTTATATTACTTGTACATATTTATATGAACGA [XGTACX_site3610] | 6.14
55 | ATATTATACATTTATACACACATAAAAAGACAAAAA [CACACA_site3565] | 6.9
56 | AAACAATTTGGGTGTACACATGATACGTTCGATGAG [CACACA_site5160] | 7.01
57 | ATAACCTAATAATACACACACATGAATATAAATAAC [CACACA_site6584] | 6.92
58 | ATATATATTTTATACGCATGTAATTATTATGTGGTC [TGCATGCA_site45] | 6.73
59 | AGGTGTCATAGATGCACACAAAAGTAACACGCACCT [CACACA_site4418] | 8.92
60 | AAAAGGTTATCAAAATGTACGAAATGTTACAAAAAT [XGTACX_site6215] | 6.38
61 | AAATGTTAAAAAGAGAAAAACAATAAAAAACAATTA [CACACA_negctrl_site1044] | 6.53
62 | AAGGAGAAATATTGCACACGTGCAAAATGGTATGAG [CACACA_site259] | 10.8
63 | TATTCTTTTATGAATACACACATATACGAAAATATT [CACACA_site6585] | 6.61
64 | AAAATTAAAAATAACACACACATATTTATATTTATA [CACACA_site7329] | 6.24
65 | AGTTATATGTACTACACACGTACACAAAATAAGATA [CACACA_site3719] | 7.14
66 | CTTAATTTTTTTTAATGTACATACATATAAACCTTT [XGTACX_site2233] | 6.84
67 | TATTTTTATTGGTGAATACACACGTATATATATATT [CACACA_site2401] | 6.76
68 | TGTTTATGTTTACATGTGCGCATTACAGAAAAAAAA [GTGCAC_site9669] | 7.47
69 | ACATGTATACTTTTTACGAAAAAAAAAAAAAAAAAA [CACACA_negctrl_site1638] | 6.22

Row | Sequence | gcPBM binding intensity (ln)
70 | TTTTTATTTAAAAGTAGTACAAGGGTTATTATTAAC [XGTACX_site1555] | 6.45
71 | CACGCGCACGAACACACACACACACGCATATAAATA [CACACA_site7103] | 7.4
72 | TACAGATAAATATACATACATATATATATATATATA [XGTACX_negctrl_site182] | 9.26
73 | ATATTATTTTATTTTTGTACAGATATCTTTAAAAAA [XGTACX_site3734] | 6.62
74 | TTTTTTTTTTTTTTTGCACACTTAAATTTGGTGGGG [CACACA_site2344] | 9.02
75 | AATACATACATACATACATGCATATATATATATATA [TGCATGCA_site462] | 9.29
76 | TTATTAAAAATGGTATGTACGCACATAATATATATA [XGTACX_site3230] | 7.33
77 | AACATCATCTCTCCACAACAACAAAAAAAAAAATAC [CACACA_negctrl_site311] | 6.61
78 | ATATTTTATACTTGCACACAAAATATATTAGAATGT [CACACA_site1985] | 9.41
79 | GAAATCTAATTTATTACACACATTTGAAAAAAATTC [CACACA_site6640] | 6.14
80 | AATTTTTTGAATAATTGTACATATTTGGTTAAATAT [XGTACX_site3612] | 6.21
81 | TTACTAAGAAGGATTTATTTTATAAAAATATTTATT [XGTACX_negctrl_site549] | 5.9
82 | TTATATTTTTTTGAGTGTACTTTTTGTGTAAAATTC [XGTACX_site2155] | 6.5
83 | ACCCATTTTTGTTGTTCTATATATTCGTGAATCATT [CACACA_negctrl_site614] | 7.23
84 | TATATGATATAATATACACACATACATATATATATA [CACACA_site8066] | 8.9
85 | GAACAACAACAAAAAAAAAAAAAAAAAAAAAAAAAA [CACACA_negctrl_site199] | 6.14
86 | TAAATAAATATATGTACACACACAAATATATACATA [CACACA_site8577] | 6.47
87 | ATTTTATGAAATGTTGCACACAAAAAACAACATGTT [CACACA_site8408] | 9.69
88 | ATATTTAATACAAATACACACACAAATATATACATA [CACACA_site9248] | 6.84
89 | ATGGGAAAAACATTCCGTACATACATACACATATAT [XGTACX_site8263] | 6.38
